# About 2,200 (0.71%) of roughly 310,000 compounds showed an effect of 50% or more. The effect is printed as a negative number. The list shows a part of the results.
# Target: human ether-à-go-go-related gene (hERG) potassium channel (human, UniProt Q12809)
# Assay: primary screen, population patch clamp on CHO cells stably expressing hERG
# Sequence of human ether-à-go-go-related gene (hERG) potassium channel (Q12809 whole entry, looked up): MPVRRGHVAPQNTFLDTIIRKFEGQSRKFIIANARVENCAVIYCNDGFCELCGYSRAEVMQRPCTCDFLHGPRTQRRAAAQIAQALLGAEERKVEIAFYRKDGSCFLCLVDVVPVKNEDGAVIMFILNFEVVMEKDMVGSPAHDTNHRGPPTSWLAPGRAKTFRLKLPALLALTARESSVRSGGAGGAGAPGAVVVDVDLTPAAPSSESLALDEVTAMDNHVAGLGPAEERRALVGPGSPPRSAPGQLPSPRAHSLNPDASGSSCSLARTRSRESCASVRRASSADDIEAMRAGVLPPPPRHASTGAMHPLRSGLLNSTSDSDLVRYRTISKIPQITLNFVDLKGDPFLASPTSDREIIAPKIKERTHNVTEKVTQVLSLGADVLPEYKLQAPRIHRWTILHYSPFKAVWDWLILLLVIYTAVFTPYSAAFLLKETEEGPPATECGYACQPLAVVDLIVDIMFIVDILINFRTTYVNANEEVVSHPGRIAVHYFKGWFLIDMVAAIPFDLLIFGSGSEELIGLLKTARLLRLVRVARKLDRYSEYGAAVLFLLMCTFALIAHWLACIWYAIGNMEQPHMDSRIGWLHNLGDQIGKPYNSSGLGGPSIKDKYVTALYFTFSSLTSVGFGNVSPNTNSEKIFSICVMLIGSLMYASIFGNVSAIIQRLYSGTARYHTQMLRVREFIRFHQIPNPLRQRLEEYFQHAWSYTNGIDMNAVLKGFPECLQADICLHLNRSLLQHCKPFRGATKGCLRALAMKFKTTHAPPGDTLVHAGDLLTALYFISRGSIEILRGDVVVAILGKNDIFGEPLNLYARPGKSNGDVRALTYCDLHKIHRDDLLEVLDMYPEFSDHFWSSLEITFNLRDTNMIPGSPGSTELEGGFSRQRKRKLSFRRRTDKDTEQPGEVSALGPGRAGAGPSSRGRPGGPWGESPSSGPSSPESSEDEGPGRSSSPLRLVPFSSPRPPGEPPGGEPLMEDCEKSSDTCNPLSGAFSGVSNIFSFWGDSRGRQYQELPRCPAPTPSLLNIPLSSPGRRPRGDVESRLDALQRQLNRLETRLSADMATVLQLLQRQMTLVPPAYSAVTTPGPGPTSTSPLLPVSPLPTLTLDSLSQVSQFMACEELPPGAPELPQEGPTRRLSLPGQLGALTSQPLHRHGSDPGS
row,SMILES,"hERG current change (%, negative = inhibition) at 1uM"
1,Cn1cnc([N+](=O)[O-])c1NCc1ccccc1,7.78%
2,O=C(Cn1cc(SCc2ccc(F)cc2)c2ccccc21)N1CCOCC1,-2.9%
3,Cn1nnnc1SCC(=O)Nc1nc2ccccc2s1,-1.17%
4,N#C/C(=C\c1cccnc1)c1ccccn1,8.43%
5,CCOc1cc(N2CCOCC2)c(OCC)cc1NC(=O)COC(=O)COc1ccc(C#N)cc1,3.78%
6,CC(C)(C)c1ccc2c(c1)C(=O)c1ccccc1C2=O,12.8%
7,CSc1ncc(/C=C2/C(=O)NC(=O)N(C)C2=O)cn1,15.7%
8,COc1ccc(/C=C/C(=O)NC(=S)N2CCOCC2)cc1,10.7%
9,CCCc1[nH]nc2c1C(c1ccncc1)C(C#N)=C(N)O2 (stereo not drawn),12.1%
10,Fc1cccc(Nc2nc3ccccc3n3nnnc23)c1,7.24%
11,Cc1cc(NCCN2CCOCC2)n2nc(C)c(-c3ccc(Cl)cc3)c2n1,0.983%
12,CN(C)C(=O)Oc1ccc(Cl)c2cccnc12,3.04%
13,COc1cc(S(=O)(=O)N(Cc2ccco2)C2CCCC2)ccc1-n1cnnn1,3.92%
14,Cc1cc(C)cc(NC(=O)CCNS(=O)(=O)c2cc(Br)cnc2N)c1,12.7%
15,O=C(CCNC(=O)N1CCn2c1nc1ccccc12)NCc1ccccc1Cl,5.35%
16,COc1cc(Cl)c(C)cc1NC(=O)COC(=O)c1cnc(C)cn1,12%
17,CCn1c(Cc2cccn2C)nnc1SCC(=O)c1ccc(C)cc1,-2.37%
18,O=C(CCN1CCOCC1)Nc1ccc(F)cc1,0.918%
19,COC(=O)c1c(-c2ccc(OC)cc2)oc2ccccc12,7.43%

row,SMILES,"hERG current change (%, negative = inhibition) at 1uM"
1,CCOC(=O)C1=C(COc2ccccc2)NC(=O)NC1c1ccc(Br)cc1 (stereo not drawn),9.77%
2,COc1cc(C(=O)N/C(=C\c2cn(C)c3ccccc23)C(=O)NCCCN2CCOCC2)cc(OC)c1OC,3.23%
3,COc1ccc(-c2csc(N3CCSCC3)n2)cc1,12.8%
4,CCOC(=O)c1sc(NC(=O)C2C3C=CC(C3)C2C(=O)O)nc1C (stereo not drawn),18.7%
5,CC(Sc1nnc(Cc2cccs2)n1C1CCCCC1)C(=O)N1CCc2ccccc21 (stereo not drawn),8.67%
6,O=C(COc1ccccc1-c1ccccc1)N/N=C/c1ccccn1,12.6%
7,c1ccc(-c2csc(Nc3cccnc3)n2)cc1,5.86%
8,N#CC1=C(N)N(c2ncn[nH]2)C2=C(C(=O)CCC2)C1c1ccccc1 (stereo not drawn),15.1%
9,COc1cc(NC(=O)COC(=O)/C=C/c2ccc(O)c(OC)c2)cc(OC)c1,13.9%
10,O=C(COc1ccc(-n2ccnc2)cc1)Nc1cccc(F)c1,-13%
11,Cc1cc(F)ccc1S(=O)(=O)N1CCCOC1CNC(=O)C(=O)NCc1ccc2c(c1)OCO2 (stereo not drawn),-0.396%
12,O=C(CCSc1nc2cc(Cl)ccc2o1)N1CCOCC1,1.58%
13,COc1ccc(-c2ccc(=O)n(Cc3ccccc3)n2)cc1,14.5%
14,CCOc1ccc(=O)n(-c2ccccc2)n1,2.02%
15,Cc1cc(NC(=O)CSC2=NS(=O)(=O)c3cc(Cl)ccc3N2)no1,16.3%
16,O=C(Nc1ccon1)c1cccc(Cl)c1,9.8%
17,O=c1n(S(=O)(=O)c2cccc3cccnc23)c2ccccc2n1S(=O)(=O)c1cccc2cccnc12,15.7%
18,NS(=O)(=O)c1ccc(CCNC(=O)COC(=O)CCc2ccccc2)cc1,8.63%
19,Cc1cccc(NC(=O)CN2C(=O)N/C(=C\c3ccccc3OCc3ccc(C(=O)O)cc3)C2=O)c1,19.9%

row,SMILES,"hERG current change (%, negative = inhibition) at 1uM"
1,CCc1ccccc1NC(=O)CNC(=O)c1cc(C2CC2)nc2c1cnn2C(C)C,5.3%
2,CN(C)CCCNC(=S)NCC(c1ccc(Cl)cc1Cl)c1c[nH]c2ccccc12 (stereo not drawn),9.62%
3,COc1ccc(CCC(=O)N2CCN(C(=O)c3ccccc3)CC2)cc1,14.6%
4,Cc1cc(C)cc(NC(=O)Nn2cnnc2)c1,19.6%
5,CCCN1CCN(S(=O)(=O)c2c(C)[nH]c(C)c2C(=O)N2CCCCC2)CC1,-0.989%
6,COc1ccc(C)cc1NC(=S)N1CCN(S(C)(=O)=O)CC1,16.8%
7,Cc1cccc(NC(=S)NCCN(C2CCCCC2)C2CCCC2)c1,-1.59%
8,CN(Cc1ccccc1)C(=O)CSc1nc2cc(C(=O)N3CCC(C(N)=O)CC3)ccc2c(=O)n1-c1ccccc1,12.4%
9,COC(=O)c1ccccc1NC(=S)N(Cc1ccc2c(c1)OCO2)Cc1cc2cc(OC)ccc2[nH]c1=O,11.8%
10,Cc1cc(=O)n2nc(N3CCCC(C(=O)NCc4ccccc4Br)C3)sc2n1 (stereo not drawn),10.2%
11,Cc1ccc(C)c(N2CCN(C(=O)CSc3ccsc3[N+](=O)[O-])CC2)c1,-2.33%
12,COc1ccc(-n2c(C)cc(/C=C3\SC(=O)NC3=O)c2C)cc1,0.884%
13,CCOC(=O)c1c(NC(=O)COC(=O)c2cnccn2)sc(C(=O)NC)c1C,5.68%
14,CCn1c(SCC(=O)N/N=C(\C)c2ccncc2)nnc1-c1ccccc1,5.74%
15,CC(=O)NCc1ccc(S(=O)(=O)N/N=C/c2ccc(N(C)C)cc2)cc1,8.99%
16,CCOc1cc(C(=O)Nc2cccc(OCC(=O)N3CCOCC3)c2)cc(OCC)c1OCC,17.4%
17,O=C(Nc1ccc(N=Nc2ccccc2)cc1)c1cccc(Cl)c1,0.671%
18,COc1ccc(CCNC(=S)NCc2ccc(Cl)c(Cl)c2)cc1OC,20.5%
19,CC1=NN(c2ccccc2)C(=O)/C1=C\C=C1/N(C)c2ccccc2C1(C)C,10.9%

# Reference: PMC4336329 (PLoS ONE, 2015)
